# Reference: PubChem BioAssay AID1466 (National Center for Advancing Translational Sciences (NCATS), 2008)
# The whole screen tested about 200,000 compounds, of which about 10 (0.005%) were called active. The inconclusive results got no clear call from the source; some entries with a clear call stand among them for comparison. Calls come from the whole dose curve; as a rule, active = well fitted inhibition curve with a large enough effect; inconclusive = small, poorly fitted or top-dose-only effect, or effect the other way, or another doubt; inactive = no such curve, though single readings can be large or run the other way. No potency is given beside an inconclusive call; the fits are too rough.
# Biological target: Lysosomal alpha-glucosidase (Homo sapiens) (UniProt P10253)
# Assay: qHTS Assay for Inhibitors of Human alpha-Glucosidase as a Potential Chaperone Treatment of Pompe Disease;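 for activity change, negative = inhibition: plate controls were uninhibited enzyme wells for no effect and no-enzyme background for full effect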
# Conditions: purified human GAA, 4-MU-alpha-glucoside fluorescence; activity change, negative = inhibition: at 76.9 µM (top of the series) unless noted
# Summary of the method: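 Compounds are titrated up to 77 uM against 4 nM human enzyme. Substrate 4-methylumbelliferyl-alpha-D-pyranoside (400 uM) reacts 20 min at room temperature in pH 5.0 buffer; liberated 4-methylumbelliferone is read at 440 nm.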
# Potency is the fitted concentration of half-maximal effect; tags give direction and shape of the fitted curve.
Compound,Potency,"activity change, negative = inhibition"
CCN1CCN(c2nc(-c3cccs3)nc3ccccc23)CC1,inactive,–
CCOC(=O)Cn1c(C)cc(COC)c(C#N)c1=O,–,inconclusive: 16.3% [activator]
Cc1ccc2cc(C=O)c(N(C)C)nc2c1,"inconclusive [inhibitor, full curve, poor fit]",–
Cn1nc(C(F)(F)F)cc1-c1ccc(/C=C(\C#N)C(=O)c2cccc(C(F)(F)F)c2)s1,inactive,–
CCOC(=O)C1CCN(c2ncnc3c2[nH]c2cccc(OC)c23)CC1,"inconclusive [activator, single point]",–
O=C(CSc1nnc(-c2ccc(F)cc2)o1)NC1CCCCC1,"inconclusive [inhibitor, single point]",–
CCn1c(COc2ccccc2C)nc2ccccc21,"inconclusive [inhibitor, partial curve, poor fit]",–
CCOC(=O)/C(N=Nc1c(C)n(C)n(-c2ccccc2)c1=O)=C(/O)c1ccccc1,"inconclusive [inhibitor, single point]",–
Cc1cc(OCC(=O)N2CCOCC2)c(C(C)C)cc1Cl,"inconclusive [inhibitor, single point]",–
CN(C)/C=C/C(=O)c1ccc(C(F)(F)F)cc1F,"inconclusive [inhibitor, partial curve, poor fit]",–
COc1cc(NC(=O)CSc2nc3ccccc3cc2Cc2ccccc2)cc(OC)c1,"inconclusive [inhibitor, single point]",–
Cc1c(C(=O)NCc2cccnc2)oc2ccc(S(=O)(=O)N3CCCC(C)C3)cc12 (stereo not drawn),"inconclusive [inhibitor, partial curve, poor fit]",–
COc1c(F)c(F)c(C(=O)Nc2ccc(N3CCN(C(C)=O)CC3)c(Cl)c2)c(F)c1F,inactive,–
CCn1c2ccccc2c2cc(NC(=O)COC(=O)c3cccc(S(=O)(=O)NC)c3)ccc21,"inconclusive [inhibitor, single point]",–
C/C(=N\NC(=O)c1cccnc1)c1cc2ccccc2o1,–,inconclusive: -18.5% [inhibitor]
COc1ccc(NC(=O)COC(=O)CCCN2C(=O)c3ccccc3C2=O)cc1Cl,"inconclusive [inhibitor, single point]",–
O=C1CCCCCN1CP(=O)(O)CCc1ccccc1,"inconclusive [inhibitor, partial curve]",–
CC(Oc1ccccc1F)C(=O)NNC(=O)c1cc2ccccc2o1 (stereo not drawn),"inconclusive [inhibitor, single point]",–
